Data as given in publication PMC4299142.
These are yes or no findings as the source states them, for the method shown. For some of these results: Binding seen in cells or lysates may run through a third protein. Some results given as binding are weak or reduced against the parent protein; the word gives no strength. For some of these results: Sequences can lack the tags named with a protein. Blank lines part the entries; values can stand above or below the molecule they belong to.

Tests used:
[1] = biological target: T1, truncated form of AIP1-1 (ΔAIP1-1), lacking the first 137 amino acids (Arabidopsis) (UniProt Q9ZU34); assay: two-hybrid; pairwise, LexA-based interaction trap; bait vector pMG8 (pEG202 derivative), prey vector pMG5 (pJG4-5 derivative, B42 AD); yeasts grown for 24 or 48 h
T1 sequence: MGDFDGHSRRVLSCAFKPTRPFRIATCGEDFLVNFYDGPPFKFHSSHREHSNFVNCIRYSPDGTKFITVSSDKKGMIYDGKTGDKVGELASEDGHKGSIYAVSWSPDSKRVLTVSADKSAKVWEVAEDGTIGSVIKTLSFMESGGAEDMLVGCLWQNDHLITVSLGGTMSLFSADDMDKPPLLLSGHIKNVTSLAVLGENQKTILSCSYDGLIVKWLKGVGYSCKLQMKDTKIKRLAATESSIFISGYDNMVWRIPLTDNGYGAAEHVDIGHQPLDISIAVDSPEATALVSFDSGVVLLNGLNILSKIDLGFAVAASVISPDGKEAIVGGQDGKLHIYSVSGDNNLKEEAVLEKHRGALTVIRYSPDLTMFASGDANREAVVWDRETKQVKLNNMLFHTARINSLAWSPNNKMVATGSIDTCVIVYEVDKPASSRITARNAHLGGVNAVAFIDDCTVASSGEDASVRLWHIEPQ

[2] = biological target: T2, AIP1-1, fusion for pairwise two-hybrid (Arabidopsis) (UniProt Q9ZU34); assay: as above
T2 sequence: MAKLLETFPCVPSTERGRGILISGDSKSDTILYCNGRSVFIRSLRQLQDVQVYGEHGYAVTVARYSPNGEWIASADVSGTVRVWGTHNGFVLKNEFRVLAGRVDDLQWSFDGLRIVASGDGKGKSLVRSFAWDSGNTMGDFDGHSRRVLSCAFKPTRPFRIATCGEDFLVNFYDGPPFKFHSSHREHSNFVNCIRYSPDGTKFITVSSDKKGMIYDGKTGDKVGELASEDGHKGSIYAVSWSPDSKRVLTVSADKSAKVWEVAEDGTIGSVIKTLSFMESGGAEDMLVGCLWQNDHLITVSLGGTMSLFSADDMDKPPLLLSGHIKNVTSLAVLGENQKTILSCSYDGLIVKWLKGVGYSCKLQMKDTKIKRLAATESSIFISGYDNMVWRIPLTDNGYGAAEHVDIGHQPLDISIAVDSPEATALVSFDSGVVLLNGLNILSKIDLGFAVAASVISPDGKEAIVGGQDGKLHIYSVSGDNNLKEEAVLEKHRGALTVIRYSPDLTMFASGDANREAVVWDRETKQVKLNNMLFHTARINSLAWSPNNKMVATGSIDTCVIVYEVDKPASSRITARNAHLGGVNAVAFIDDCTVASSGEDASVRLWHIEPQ

[3] = biological target: T3, ACTIN-… PROTEIN1-2 (AIP1-2), LexA or B42 AD fusion for pairwise two-hybrid (Arabidopsis) (UniProt Q9LV35); assay: as above
T3 sequence: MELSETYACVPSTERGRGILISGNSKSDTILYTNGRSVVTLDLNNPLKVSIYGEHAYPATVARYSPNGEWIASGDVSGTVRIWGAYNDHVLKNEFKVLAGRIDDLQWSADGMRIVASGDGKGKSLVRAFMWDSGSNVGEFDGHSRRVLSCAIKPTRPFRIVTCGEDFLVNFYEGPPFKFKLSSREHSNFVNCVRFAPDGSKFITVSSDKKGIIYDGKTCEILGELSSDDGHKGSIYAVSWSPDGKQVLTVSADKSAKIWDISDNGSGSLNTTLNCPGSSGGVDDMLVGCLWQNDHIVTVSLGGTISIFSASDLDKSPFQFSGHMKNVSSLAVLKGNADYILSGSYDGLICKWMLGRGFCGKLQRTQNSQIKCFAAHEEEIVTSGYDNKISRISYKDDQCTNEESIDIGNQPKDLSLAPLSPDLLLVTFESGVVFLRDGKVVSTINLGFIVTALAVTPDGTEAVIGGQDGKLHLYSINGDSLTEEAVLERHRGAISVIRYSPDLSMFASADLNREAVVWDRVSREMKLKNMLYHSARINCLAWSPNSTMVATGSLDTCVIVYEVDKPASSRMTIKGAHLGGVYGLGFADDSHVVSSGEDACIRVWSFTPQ

[4] = biological target: ACTIN7 (ACT7), LexA or B42 AD fusion for pairwise two-hybrid (Arabidopsis) (UniProt P53492); assay: as above
[5] = biological target: T4, GST-AIP1-2 (Arabidopsis) (UniProt Q9LV35); assay: pull-down; GST fusion from bacterial extract bound to 40 µl glutathione sepharose, incubated with 300 µl bacterial extract containing 6×His-ACT2 or 6×His-ACT7; western blot; only the target purified
T4 sequence: T3 sequence

[6] = biological target: ACTIN7 (ACT7), full-length bait of the Hybrigenics two-hybrid screen (Arabidopsis) (UniProt P53492); assay: two-hybrid; screen at Hybrigenics (ULTImate Y2H): full-length ACT7 bait against a one-week-old Arabidopsis seedling cDNA expression library
[7] = biological target: ACT1, fusion for pairwise two-hybrid (Arabidopsis) (UniProt P0CJ46); assay: two-hybrid; pairwise, LexA-based interaction trap; bait vector pMG8 (pEG202 derivative), prey vector pMG5 (pJG4-5 derivative, B42 AD); yeasts grown for 24 or 48 h
[8] = biological target: ACT8, fusion for pairwise two-hybrid (Arabidopsis) (UniProt Q96293); assay: as above
[9] = biological target: ACT2, fusion for pairwise two-hybrid (Arabidopsis) (UniProt Q96292); assay: as above

binding [1]: no binding | binding [2]: binds | binding [3]: binds | binding [4]: binds
Molecule: ACT8, fusion for pairwise two-hybrid (from UniProt Q96293 1-377)

binding [1]: no binding | binding [2]: binds | binding [3]: binds
Molecule: ACT1, fusion for pairwise two-hybrid (from UniProt P0CJ46 1-377)

binding [1]: no binding | binding [2]: binds | binding [3]: binds | binding [4]: binds
Molecule: ACT2, fusion for pairwise two-hybrid (from UniProt Q96292 1-377)

binding [5]: binds
Molecule: 6×His-ACT2 (from UniProt Q96292 1-377)

binding [1]: no binding | binding [3]: binds
Molecule: ACTIN7 (ACT7), LexA or B42 AD fusion for pairwise two-hybrid (from UniProt P53492 1-377)

binding [5]: binds
Molecule: 6×His-ACT7 (from UniProt P53492 1-377)

binding [6]: binds
B1: ACTIN-… PROTEIN1-2 (AIP1-2), full-length cDNA clones from the seedling library (protein, UniProt Q9LV35 1-609)
chain: T3 sequence

binding [4]: binds
B2: ACTIN-… PROTEIN1-2 (AIP1-2), LexA or B42 AD fusion for pairwise two-hybrid (protein, UniProt Q9LV35 1-609)
chain: T3 sequence

binding [4]: binds
B3: AIP1-1, fusion for pairwise two-hybrid (protein, UniProt Q9ZU34 1-611)
chain: T2 sequence

binding [7]: no binding | binding [8]: no binding | binding [4]: no binding | binding [9]: no binding
B4: truncated form of AIP1-1 (ΔAIP1-1), lacking the first 137 amino acids (domain or fragment, UniProt Q9ZU34 138-611)
chain: T1 sequence
